The supplement of paper PMC7125110
± gives the standard error. Variants at the floor of the assay are shown more often than the library holds them.

B1: glmS ribozyme (parent)
chain: AUAAAAGCGCCAGAACUACAGAAAUGUAGUUGACGAGGAGGAGGUUUAUCGAAUUUUCGGCGGAUGCCUCCAAA

Key:
Conditions in all cases: with glucosamine-6-phosphate
glucosamine-6-phosphate [1] = variants of: B1; test: self-cleavage kobs at 40 uM GlcN6P; higher = faster cleavage; RNA array
In short: (§1)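 kcat and KM were obtained from weighted Michaelis–Menten fits across concentrations of kobs values. Those came from one- or two-exponential decay fits to per-tile medians normalised to baseline and to non-cleaving reference variants. The variants were barcoded ribozymes transcribed in situ by E. coli RNA polymerase on sequenced MiSeq chips and tracked through a hybridised Cy3 probe at 37 °C, with 40 μM to 10 mM glucosamine-6-phosphate in HEPES/KCl/Mg(OAc)2 buffer flowed in.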

glucosamine-6-phosphate [2] = variants of: B1; test: self-cleavage kobs at 640 uM GlcN6P; higher = faster cleavage; RNA array
In short: as §1

glucosamine-6-phosphate [3] = variants of: B1; test: self-cleavage kobs at 160 uM GlcN6P; higher = faster cleavage; RNA array
In short: as §1

glucosamine-6-phosphate [4] = variants of: B1; test: self-cleavage kobs at 2500 uM GlcN6P; higher = faster cleavage; RNA array
In short: as §1

glucosamine-6-phosphate [5] = variants of: B1; test: self-cleavage kobs at 10000 uM GlcN6P; higher = faster cleavage; RNA array
In short: as §1

Variant | self-cleavage kobs at 40 uM GlcN6P (glucosamine-6-phosphate [1]) [s⁻¹] | self-cleavage kobs at 640 uM GlcN6P (glucosamine-6-phosphate [2]) [s⁻¹] | self-cleavage kobs at 160 uM GlcN6P (glucosamine-6-phosphate [3]) [s⁻¹] | self-cleavage kobs at 2500 uM GlcN6P (glucosamine-6-phosphate [4]) [s⁻¹] | self-cleavage kobs at 10000 uM GlcN6P (glucosamine-6-phosphate [5]) [s⁻¹]
G44U G63C | < 1e-05 | < 1e-05 | < 1e-05 | < 1e-05 | < 1e-05
G44U U47G | < 1e-05 | < 1e-05 | < 1e-05 | – | –
G44U U56A G60U U69G | < 1e-05 | < 1e-05 | < 1e-05 | < 1e-05 | –
G44U U57A | < 1e-05 | < 1e-05 | < 1e-05 | – | < 1e-05
G44U U57C | < 1e-05 | < 1e-05 | – | – | –
G44U U69A | < 1e-05 | < 1e-05 | < 1e-05 | < 1e-05 | < 1e-05
U45A C50A | < 1e-05 | – | < 1e-05 | – | –
U45A C50G | < 1e-05 | < 1e-05 | < 1e-05 | – | < 1e-05
U45A C58U | < 1e-05 | – | – | 9.07e-05 ± 1.6e-05 | 0.000149 ± 2.4e-05
U45A C61G | < 1e-05 | < 1e-05 | < 1e-05 | < 1e-05 | < 1e-05
U45A G63U | < 1e-05 | < 1e-05 | < 1e-05 | < 1e-05 | –
U45A U54A | 0.00179 ± 0.00033 | 0.0204 ± 0.0069 | 0.00611 ± 0.0017 | 0.122 ± 0.049 | 0.0819 ± 0.035
U45C A48G U49A | < 1e-05 | – | – | – | –
U45C G60C | < 1e-05 | < 1e-05 | < 1e-05 | < 1e-05 | < 1e-05
U45C G63A A64G | < 1e-05 | – | – | – | –
U45C G63U | < 1e-05 | < 1e-05 | < 1e-05 | < 1e-05 | < 1e-05
U45G C50U | < 1e-05 | – | < 1e-05 | – | –
U45G C61U | < 1e-05 | < 1e-05 | < 1e-05 | < 1e-05 | < 1e-05
U45G G62C | < 1e-05 | < 1e-05 | < 1e-05 | < 1e-05 | < 1e-05
U45G G62U | < 1e-05 | < 1e-05 | < 1e-05 | < 1e-05 | < 1e-05

Variant | self-cleavage kobs at 40 uM GlcN6P (glucosamine-6-phosphate [1]) [s⁻¹] | self-cleavage kobs at 640 uM GlcN6P (glucosamine-6-phosphate [2]) [s⁻¹] | self-cleavage kobs at 160 uM GlcN6P (glucosamine-6-phosphate [3]) [s⁻¹] | self-cleavage kobs at 2500 uM GlcN6P (glucosamine-6-phosphate [4]) [s⁻¹] | self-cleavage kobs at 10000 uM GlcN6P (glucosamine-6-phosphate [5]) [s⁻¹]
U45G G63C | < 1e-05 | < 1e-05 | – | < 1e-05 | < 1e-05
U45G U57G | < 1e-05 | – | < 1e-05 | – | 3.68e-05 ± 9e-06
U46A G59U | < 1e-05 | < 1e-05 | < 1e-05 | – | < 1e-05
U46A G66C | 5.47e-05 ± 1.7e-05 | – | – | – | –
U46C | 0.000108 ± 2.5e-06 | 0.00126 ± 3.5e-05 | 0.000364 ± 1.3e-05 | 0.00342 ± 0.00018 | 0.00329 ± 7.7e-05
U46C A53G | 8.69e-05 ± 1.5e-05 | 0.00119 ± 0.00015 | 0.000402 ± 6.7e-05 | 0.0025 ± 0.00035 | 0.00272 ± 0.00067
U46C G63U C70A | < 1e-05 | – | – | – | –
U46G A48U G60C | < 1e-05 | < 1e-05 | < 1e-05 | < 1e-05 | –
U46G A53G | 0.000271 ± 7.8e-05 | 0.00165 ± 0.00049 | 0.000482 ± 0.00011 | 0.00267 ± 0.00089 | 0.00811 ± 0.0028
U46G C50U | < 1e-05 | – | < 1e-05 | – | –
U46G C58U | < 1e-05 | – | – | – | –
U46G G51U U57A C70G | 4.37e-05 ± 1.9e-05 | – | – | – | –
U46G G59C | < 1e-05 | < 1e-05 | < 1e-05 | < 1e-05 | –
U46G G62U | < 1e-05 | < 1e-05 | < 1e-05 | < 1e-05 | < 1e-05
U47A C61G | < 1e-05 | – | – | – | –
U47A C70U | 0.000803 ± 0.00012 | 0.0018 ± 0.00029 | 0.00118 ± 0.00023 | 0.00221 ± 0.00048 | 0.00993 ± 0.0023
U47A U54G G63A | < 1e-05 | – | – | – | –
U47C A48G G59U U65C | < 1e-05 | – | – | – | –
U47C A53U U56A G59C | < 1e-05 | < 1e-05 | – | < 1e-05 | < 1e-05
